# Test results published in ChEMBL document CHEMBL1157539, “Thousands of chemical starting points for antimalarial lead identification” (Nature, 2010).
# Over roughly 13,000 compounds, “IFI” has its median near 4; the highest 2% begin near 17. Some of the results follow.
# Experiment: GSK_TCMDC: Inhibition Frequency Index (IFI). The number of non-kinase HTS assays where a compound showed > 50 % inhibition, expressed as a percentage of the number of such assays in which the compound was tested (-0 is zero)
# Type: functional
row,SMILES,IFI
1,CCOc1cc(C(=O)NCCN2CCCCC2)ccc1-c1nc2cc(Cl)ccc2[nH]1,0.72%
2,CCCCCN1CCCC1CNS(=O)(=O)c1cccc(C(=O)Nc2cccc(C#N)c2)c1 (stereo not given),1.22%
3,COc1ccc(CNCC2CCC(CNCCc3ccccc3)CC2)cc1Cl (stereo not given),2.21%
4,CCCc1cc(=O)[nH]c(-n2nc(C)cc2NC(=O)C(CC)c2ccccc2)n1 (stereo not given),18.5%
5,NC1=Nc2ccc(Cl)cc2C1(O)c1ccccc1 (stereo not given),1.4%
6,CC(C)(C)C/C=C\c1ccc(C(=O)NCC2CC2)cc1,4.72%
7,O=C(/C=C/c1ccc(Cl)c(Cl)c1)NCCCCCN1CCC(CCNC(=O)Cc2ccc(Cl)cc2)CC1,5.59%
8,CC(C)OC(=O)c1cccnc1SCC(=O)Nc1ccc(C(F)(F)F)cc1Cl,-0%
9,N#CC1(c2ccccc2)CCN(c2nc(NCCCN3CCCC3=O)nc(N3CCCC4CCCCC43)n2)CC1 (stereo not given),-0%
10,Cc1cccc2nc(-c3ccc(-c4ccc(CN5CCN(CC6CCCN(C)C6)CC5)cc4)s3)[nH]c12 (stereo not given),7.04%
11,CN(/N=C/c1ccc(Cl)cc1)c1nc(NCCc2ccc(O)cc2)nc(N2CCNCC2)n1,4.51%
12,COc1cccc(OC)c1C(=O)N1CCC2(CC1)C(=O)N(CC(=O)NC1CCCCC1)CN2c1ccccc1,-0%
13,CC(C)CCCC(C)NC[C@@H](O)[C@H](Cc1ccccc1)NC(=O)c1cc(N2CCCC2=O)cc(N(c2ccccc2)S(C)(=O)=O)c1 (stereo not given in full),4.51%
14,c1cc(CNCCc2ccncc2)cc(-c2cccc(-c3nc4ccccc4[nH]3)c2)c1,7%
15,O=C(NCCN1CCC(c2ccncc2)CC1)c1ccc(Nc2nccc(Nc3ccc(Oc4ccccc4)cc3)n2)cc1,5.19%
16,O=C(Nc1ccc(OC2CCN(Cc3ccsc3)C2)c(Cl)c1)c1ccc(F)cc1 (stereo not given),8.2%
17,C=CCOc1ccc(Cc2cnc(N)nc2N)cc1CCC,5.93%
18,COc1ccc2c(c1)OC(C)(C)CC2=NOS(=O)(=O)c1ccc(C)cc1,1.39%
19,CCCCC(=O)Nc1nc2ccc([N+](=O)[O-])cc2s1,1.42%
20,c1ccc(COc2ccc(C3CCCCC3)cc2)nc1,2.9%
21,Cc1cccc2nc(-c3ccc(-c4cccc(NC(=O)Nc5ccc(Cl)cc5)c4)s3)[nH]c12,3.03%
22,COc1ccc(CN2CCC(CNCCc3ccccc3Oc3ccccc3)CC2)cc1,9.86%
23,COc1cccc(N(CCCN2C(=O)c3cccc4cccc(c34)C2=O)C(=O)c2ccccc2C)c1,3.23%

row,SMILES,IFI
1,O=C(Nc1cccc(-c2nn3ccccc3c2-c2ccnc(Nc3ccc(NCCCN4CCOCC4)c(F)c3)n2)c1)c1c(F)cccc1F,5.22%
2,O=C(N[C@H]1CCN(Cc2ccc(OCCCN3CCCCC3)cc2)C1)c1ccc(Cl)c(Cl)c1,7.64%
3,COc1ccc2nccc(N3CCC(CCNCc4cc5c(cn4)OCCO5)CC3)c2n1,5%
4,Cn1cnc2c(SCc3ccccc3OCc3ccccc3)ncnc21,3.36%
5,CCC(C)NC(=O)CN1CN(c2ccccc2)C2(CCN(C(=O)c3ccc(-c4ccccc4)cc3)CC2)C1=O (stereo not given),1.67%
6,COc1ccc(C(=O)CC(=O)c2ccc(OC)cc2OC)c(OC)c1,1.41%
7,CCn1cnc2c(N3CCCC3=O)cc(C(=O)N[C@@H](Cc3ccccc3)[C@H](O)CNC3CCCCC3)cc21,1.49%
8,O=C(NCc1ccc(Cl)c(Cl)c1)c1cccc(C2CCCN(Cc3ccc4[nH]cnc4c3)C2)c1 (stereo not given),5%
9,CCC[C@@H]([C@@H](CC(C)C)C(=O)N[C@H](C(=O)Nc1nccs1)C(C)(C)SCCNC(=O)OCC)N(O)C=O,1.48%
10,Cc1ccc(N2C(=O)C3C(C2=O)C2(c4ccccc4)C(=O)C3(c3ccccc3)C(c3ccccc3)=C2c2ccccc2)cc1 (stereo not given),0.74%
11,O=C(Nc1ccc(-c2ccc(-c3nc4cc(C(F)(F)F)ccc4[nH]3)s2)cc1)c1c[nH]cn1,5.5%
12,COc1cccc(C(=O)Nc2ccc(Nc3nc(C)cc(N4CCCCC4)n3)cc2)c1OC,13%
13,c1ccc2c3c([nH]c2c1)C(c1ccc2c(c1)CCO2)N(c1ncnc(N2CCN(CCCN4CCOCC4)CC2)n1)CC3 (stereo not given),7.41%
14,COC(=O)C(NC(=O)NC1CCN(c2ccnc(Nc3ccc(F)cc3)n2)C1)c1ccccc1 (stereo not given),-0%
15,CN1CCC(NCc2cccc(-c3cnc(NCc4ccccc4)nc3)c2)CC1,5.56%
16,Cc1cccc(C(=O)Nc2ccc(N3CCCN(Cc4cccc(O)c4)CC3)cc2)c1,7.69%
17,c1cc(-c2cc3ccc(C4=NCCN4)cc3[nH]2)ccc1C1=NCCN1,3.36%
18,COc1ccc(CN2CCN(CCCCNC(=O)c3ccc(NC(=O)c4ccc(Cl)cc4)cc3)CC2)c(OC)c1,2.68%
19,Cc1nn(CC(O)Cn2c3ccc(Br)cc3c3cc(Br)ccc32)c(C)c1Br (stereo not given),1.48%
20,c1ccc(CN2CCC(NCc3ccccc3-c3cccc(CNC4CCCC4)c3)CC2)cc1,5.84%
21,COc1cc(F)c2ncc(Cl)c([C@@H](O)CN3CCC(NCc4ccc5c(n4)NC(=O)CO5)CC3)c2c1,0.88%
22,Cc1ccc(NC(=O)c2cccc(CN3CCCN(Cc4cccc(O)c4)CC3)c2)cc1,1.43%
23,Cn1ncc2ccc(Nc3nccc(-c4ccc5c(c4)c(N)nn5C)n3)cc21,17.8%

row,SMILES,IFI
1,COc1ccc(CNC2CCN(C)CC2)cc1-c1ccc(S(=O)(=O)NC2CCC2)c(F)c1,6.67%
2,CNCc1cccc(-c2ccc3ccnc(N)c3c2)c1,1.87%
3,O=C(Nc1ccc(Oc2cccnc2)cc1)C1CCN(Cc2cc(Cl)ccc2O)CC1,11.1%
4,CN(C)c1cccc2c1nc(-c1ccco1)n2CC1CCCN1 (stereo not given),1.33%
5,Nc1nc(N)c2c(Cc3ccc(Br)cc3)cccc2n1,3.57%
6,CCCN(CCC)CC(O)COc1ccccc1C(=O)Nc1ccccc1 (stereo not given),0%
7,O=C(CCc1cccnc1)Nc1ccc(-c2cccc(-c3nc4cc(F)ccc4[nH]3)c2)cc1,4.35%
8,CC(C)[C@H](NC(=O)c1c(CN2CCC(N3CCCCC3)CC2)c(-c2ccccc2)nc2cc(O)ccc12)c1ccccc1,4.29%
9,COc1ccc(Cl)cc1N1CCN(CCCNC(=O)c2ccc(-c3nc4cc5ccccc5cc4[nH]3)c(F)c2)CC1,4.32%
10,CN(C)CCCNc1ncnc2c1[nH]c1ccc(Cl)cc12,-0%
11,O=C(Nc1ccc2c(c1)CCCN2S(=O)(=O)c1cccs1)c1cc([N+](=O)[O-])ccc1Cl,10.3%
12,O=C(CSc1nnc(-c2ccccc2Br)[nH]1)c1c[nH]c2ccccc12,0.69%
13,Cc1ccc(S(=O)(=O)NC(=N)NC(N)=O)cc1,-0%
14,O=C(NCCCCN1CCC(c2ccc3ccccc3c2O)CC1)c1ccc(-c2ccc(Cl)cc2)cc1,15.1%
15,CNCCNCc1ccc(-c2ccc(-c3nc4cccc(C)c4[nH]3)s2)cc1,7%
16,N#Cc1cccc(Nc2ncc3c(-c4cccc(NC(=O)Cc5cccc(Cl)c5)c4)c[nH]c3n2)c1,1.53%
17,Cc1nc(-c2cccc(C(=O)Nc3cnc4ccccc4c3)c2)no1,2.27%
18,CC(Oc1ccc(C(=O)c2ccc(F)cc2)cc1)C(=O)N1CCc2ccccc21 (stereo not given),1.55%
19,O=C(NCCN1CCCC1)c1cccc(-c2ccc(-c3nc4cc(C(F)(F)F)ccc4[nH]3)cc2)c1,5.31%
20,CCOc1ccc(-c2nonc2NC(=O)c2ccc(OC(C)C)cc2)cc1OCC,0%
21,NS(=O)(=O)c1cccc(Nc2nccc(-c3cnn4ncccc34)n2)c1,9.49%
22,O=C(NCCc1ccc(O)cc1)n1c2ccccc2c2ccccc21,1.42%
23,Cc1noc(C)c1-c1ccc2c(Nc3ccccc3C(C)(C)C)c(C(=O)NC3CCCC3)cnc2c1,13.8%

row,SMILES,IFI
1,COc1cc(C(=O)NCCCN2CCN(c3cc(Cl)ccc3OC)CC2)ccc1-c1nc2cc(Cl)c(Cl)cc2[nH]1,-0%
2,O=C(N[C@@H](Cc1ccccc1)[C@H](O)CNC1CCOCC1)c1cc(C2CCCC2)cc(N2CCCCS2(=O)=O)c1,1.5%
3,CS(=O)(=O)c1ccc2c(c1)CCN(CCC1CCC(NC(=O)C(=Cc3ccc(Cl)cc3Cl)c3ccc(-c4ccccc4)cc3)CC1)CC2 (stereo not given),5.48%
4,CCc1cc2c(cc1OCCN(C)C)N(C(=O)Nc1ccc(-c3ccncc3)c(Cl)c1)CC2,5.63%
5,CCn1c(Sc2ccc([N+](=O)[O-])c(C#N)c2)nnc1-c1ccc(Cl)cc1,3.4%
6,O=C(C1CCN(c2nnnn2-c2ccccc2)CC1)N1CCc2ccccc2C1,0.71%
7,CCCCCCN1CCCN(Cc2ccc(C(=O)Nc3ccc(C(C)(C)C)cc3)cc2)CC1,15.5%
8,CC(C)(C)c1ccc2oc(=O)n(C3CCN(C(=O)c4ccc([N+](=O)[O-])o4)CC3)c2c1,2.38%
9,Cc1noc(C)c1-c1ccc2c(Nc3cccc4c3-c3ccccc3C4=O)c(C(=O)NCc3ccccc3I)cnc2c1,0%
10,Cc1ccc(-c2csc(C)n2)c(C)c1,0.72%
11,CN1CCC(c2cc3c(cc2Br)CCN3C(=O)Nc2ccc(-c3ccncc3)c(Cl)c2)CC1,4.48%
12,O=C(Nc1cccc(F)c1)N(Cc1ccc(-c2cccc(CN3CCNCC3)c2)cc1)C1CCN(Cc2ccccc2)CC1,3.7%
13,c1ccc(-c2nnc(-c3ccccn3)nc2NC2CCCCC2)cc1,8.11%
14,O=C(NC1CCCCN(Cc2ccccc2O)C1)c1ccc(-c2ccccc2)cc1 (stereo not given),4.08%
15,O=C1CCCC1Sc1nc2ccccc2c(=O)n1-c1ccc(Cl)c(Cl)c1 (stereo not given),2.04%
16,CC1(C)CN(CCC2CCC(NC(=O)/C=C/c3ccccc3F)CC2)Cc2ccc(C#N)cc21 (stereo not given),4.38%
17,CN1CCCN(Cc2cccc(-c3ccc(NC(=O)c4cccc(Cl)c4)cc3)c2)CC1,5.71%
18,Fc1ccc2[nH]c(-c3ccc(-c4cccc(CN5CCN(c6ccncc6)CC5)c4)cc3)nc2c1,18.1%
19,O=C(Nc1cccc(CN2CCN(Cc3ccc(O)cc3)CC2)c1)c1ccc(Cl)c(Cl)c1,7.38%
20,COc1ccc(C=NN=c2cc(C)[nH]c3ccccc23)c2ccccc12,3.57%
21,COc1ccc(O)c(C(=O)NCCc2ccc(OC)c(-c3ccc(C(C)(C)C)cc3)c2)c1,1.46%
